# Measurements taken from publication PMC9911399, “Two distinct binding modes provide the RNA-binding protein RbFox with extraordinary sequence specificity”.
# Positions count from the first letter of the chain named. This is one part of the list.
# T1: RBFOX1 RRM RbFoxmut (Fox-RRM*) (Homo sapiens, UniProt Q9NWB1 109-208, R118D;E147R;N151S;E152T)
# T1 sequence: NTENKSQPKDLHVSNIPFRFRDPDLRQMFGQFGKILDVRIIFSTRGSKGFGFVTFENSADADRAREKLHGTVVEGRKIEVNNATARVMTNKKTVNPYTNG
# B1: ACAAGCA (DNA:RNA)
# RNA: GGGAGACCGGAAUUCAGAUUGUCCACAAGCAUUAAAUCCCGUCGUAGCCACCA
# DNA 1: CAATCTGAATTCCGGTCTCCC
# DNA 2: TGGTGGCTACGACGGGATT
# B2: GAGAUGA (DNA:RNA)
# RNA: B1 RNA with A25G, C26A, A27G, G29U, C30G
# DNA 1: CAATCTGAATTCCGGTCTCCC
# DNA 2: TGGTGGCTACGACGGGATT
# B3: GAUAGCG (DNA:RNA)
# RNA: B1 RNA with A25G, C26A, A27U, A31G
# DNA 1: CAATCTGAATTCCGGTCTCCC
# DNA 2: TGGTGGCTACGACGGGATT
# B4: UGUGCGG (DNA:RNA)
# RNA: GGGAGACCGGAAUUCAGAUUGUCCUGUGCGGUUAAAUCCCGUCGUAGCCACCA
# DNA 1: CAATCTGAATTCCGGTCTCCC
# DNA 2: TGGTGGCTACGACGGGATT
# B5: AGGAUUG (DNA:RNA)
# RNA: B1 RNA with C26G, A27G, G29U, C30U, A31G
# DNA 1: CAATCTGAATTCCGGTCTCCC
# DNA 2: TGGTGGCTACGACGGGATT
# B6: CUUUUAG (DNA:RNA)
# RNA: B4 RNA with U25C, G26U, G28U, C29U, G30A
# DNA 1: CAATCTGAATTCCGGTCTCCC
# DNA 2: TGGTGGCTACGACGGGATT
# B7: GGUAGUC (DNA:RNA)
# RNA: B1 RNA with A25G, C26G, A27U, C30U, A31C
# DNA 1: CAATCTGAATTCCGGTCTCCC
# DNA 2: TGGTGGCTACGACGGGATT
# B8: CCAGCGC (DNA:RNA)
# RNA: B4 RNA with U25C, G26C, U27A, G31C
# DNA 1: CAATCTGAATTCCGGTCTCCC
# DNA 2: TGGTGGCTACGACGGGATT
# B9: AGGGUUA (DNA:RNA)
# RNA: B1 RNA with C26G, A27G, A28G, G29U, C30U
# DNA 1: CAATCTGAATTCCGGTCTCCC
# DNA 2: TGGTGGCTACGACGGGATT
# B10: ACUCCGA (DNA:RNA)
# RNA: B1 RNA with A27U, A28C, G29C, C30G
# DNA 1: CAATCTGAATTCCGGTCTCCC
# DNA 2: TGGTGGCTACGACGGGATT
# B11: GGGACCA (DNA:RNA)
# RNA: B1 RNA with A25G, C26G, A27G, G29C
# DNA 1: CAATCTGAATTCCGGTCTCCC
# DNA 2: TGGTGGCTACGACGGGATT
# B12: GUGGGUG (DNA:RNA)
# RNA: B4 RNA with U25G, G26U, U27G, C29G, G30U
# DNA 1: CAATCTGAATTCCGGTCTCCC
# DNA 2: TGGTGGCTACGACGGGATT
# B13: GUUAGUG (DNA:RNA)
# RNA: B1 RNA with A25G, C26U, A27U, C30U, A31G
# DNA 1: CAATCTGAATTCCGGTCTCCC
# DNA 2: TGGTGGCTACGACGGGATT
# B14: GGUUAAA (DNA:RNA)
# RNA: B4 RNA with U25G, G28U, C29A, G30A, G31A
# DNA 1: CAATCTGAATTCCGGTCTCCC
# DNA 2: TGGTGGCTACGACGGGATT
# B15: GUGUUCC (DNA:RNA)
# RNA: B1 RNA with A25G, C26U, A27G, A28U, G29U, A31C
# DNA 1: CAATCTGAATTCCGGTCTCCC
# DNA 2: TGGTGGCTACGACGGGATT
# B16: GUCACGA (DNA:RNA)
# RNA: B1 RNA with A25G, C26U, A27C, G29C, C30G
# DNA 1: CAATCTGAATTCCGGTCTCCC
# DNA 2: TGGTGGCTACGACGGGATT
# B17: GAAUUGC (DNA:RNA)
# RNA: B1 RNA with A25G, C26A, A28U, G29U, C30G, A31C
# DNA 1: CAATCTGAATTCCGGTCTCCC
# DNA 2: TGGTGGCTACGACGGGATT
# B18: GGCAGCA (DNA:RNA)
# RNA: B1 RNA with A25G, C26G, A27C
# DNA 1: CAATCTGAATTCCGGTCTCCC
# DNA 2: TGGTGGCTACGACGGGATT
# B19: CCUCUUU (DNA:RNA)
# RNA: B1 RNA with A25C, A27U, A28C, G29U, C30U, A31U
# DNA 1: CAATCTGAATTCCGGTCTCCC
# DNA 2: TGGTGGCTACGACGGGATT
# B20: GCCCAGA (DNA:RNA)
# RNA: B1 RNA with A25G, A27C, A28C, G29A, C30G
# DNA 1: CAATCTGAATTCCGGTCTCCC
# DNA 2: TGGTGGCTACGACGGGATT
# Target: T1, RBFOX1 RRM RbFoxmut (Fox-RRM*)
# Experiment: EMSA; HiTS-Eq, 1 nM pool, 10 min; buffer printed only for the single-RNA assays: 10 mM Tris pH 7.5, 150 mM NaCl, 3.4 mM EDTA, 0.001% NP-40, 30 C
# Conditions: tags: His6 N-terminal (pET28a); label: 5' 32P
# Method in brief: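 Purified wild-type or mutant RbFox RRM at increasing concentrations was equilibrated with 1 nM of 5′-radiolabelled RNA carrying 7 randomized nucleotides for 10 min in 50 µL. Unbound RNA was separated by 8% native PAGE and sequenced. Relative association constants came from read-count changes of each RNA species compared with the control reaction, normalised to the cognate motif.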
row,Binder,binding signal
1,B1,0.127 KA relative to UGCAUGU
2,B2,0.0886 KA relative to UGCAUGU
3,B3,0.105 KA relative to UGCAUGU
4,B4,0.122 KA relative to UGCAUGU
5,B5,0.583 KA relative to UGCAUGU
6,B6,0.144 KA relative to UGCAUGU
7,B7,0.199 KA relative to UGCAUGU
8,B8,0.111 KA relative to UGCAUGU
9,B9,0.123 KA relative to UGCAUGU
10,B10,0.0776 KA relative to UGCAUGU
11,B11,0.0856 KA relative to UGCAUGU
12,B12,0.349 KA relative to UGCAUGU
13,B13,0.155 KA relative to UGCAUGU
14,B14,0.0723 KA relative to UGCAUGU
15,B15,0.0879 KA relative to UGCAUGU
16,B16,0.0957 KA relative to UGCAUGU
17,B17,0.119 KA relative to UGCAUGU
18,B18,0.108 KA relative to UGCAUGU
19,B19,0.0921 KA relative to UGCAUGU
20,B20,0.0922 KA relative to UGCAUGU
